Values joined by “and” are separate entries in the source; they are usually repeats but may differ in a detail not shown here. Equal values may be shown once. This list was built around the results that the source calls inconclusive (neither active nor inactive); the mix of calls is not that of the screen. For some of these results: Potencies of inconclusive entries are doubtful fits and often do not repeat. Some structures have more than one record in an assay (separate samples or runs), and their calls can disagree. Active and inactive are the calls of the source. Calls come from the whole dose curve; as a rule, active = well fitted curve in the direction sought with a large enough effect; inconclusive = small, poorly fitted or top-dose-only effect, or another doubt; inactive = no such curve, though single readings can be large; an effect the other way counts as inactive or inconclusive.
How the values were obtained:
[1] = tested on: CASKI; assay: Primary qHTS to identify gynecologic anti-cancer compounds using libraries of approved drugs and bioactive compounds (AID 1345084); settings: Gynecologic cancer cell panel viability, ATPlite luminescence, 48 h; series mostly up to 57.5 µM; note: nearly all actives have a fitted effect of over 55% in size
Procedure, shortened: (§1)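 Cells, 1,000 per well, were allowed to settle for 16 h at 37 C before compound addition. Five concentrations were tested for 48 h, and viability was read by ATPlite luminescence after 15 min at room temperature.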

[2] = tested on: Es-2; assay: as above; settings: Gynecologic cancer cell panel viability, ATPlite luminescence, 48 h; series mostly up to 57.5 µM
Procedure, shortened: as §1

[3] = tested on: HeLa; assay: as above; settings: Gynecologic cancer cell panel viability, ATPlite luminescence, 48 h; series mostly up to 57.5 µM
Procedure, shortened: as §1

[4] = tested on: Hek293T; assay: as above; settings: Gynecologic cancer cell panel viability, ATPlite luminescence, 48 h, control line for the selectivity index; series mostly up to 57.5 µM
Procedure, shortened: as §1

[5] = tested on: JEG-3; assay: as above; settings: Gynecologic cancer cell panel viability, ATPlite luminescence, 48 h; series mostly up to 57.5 µM
Procedure, shortened: as §1

[6] = tested on: PA-1; assay: as above; settings: Gynecologic cancer cell panel viability, ATPlite luminescence, 48 h; series mostly up to 57.5 µM
Procedure, shortened: as §1

[7] = tested on: SKOV3; assay: as above; settings: Gynecologic cancer cell panel viability, ATPlite luminescence, 48 h; activity change, negative = cytotoxicity: at 57.5 µM (top of the series) unless noted
Procedure, shortened: as §1

[8] = tested on: Tov-21-G; assay: as above; settings: Gynecologic cancer cell panel viability, ATPlite luminescence, 48 h; series mostly up to 57.5 µM
Procedure, shortened: as §1

[9] = tested on: Tov112D; assay: as above; settings: Gynecologic cancer cell panel viability, ATPlite luminescence, 48 h; series mostly up to 57.5 µM
Procedure, shortened: as §1

[10] = tested on: OV90; assay: as above; settings: Gynecologic cancer cell panel viability, ATPlite luminescence, 48 h; series mostly up to 57.5 µM
Procedure, shortened: as §1

[11] = tested on: astro; assay: Drug repurposing screens with cells derived from glioblastoma tumor samples (AID 1345199); settings: viability, ATP luminescence, 48 h; activity, negative = cell killing: at 45.9 µM (top of the series); note: nearly all actives have a fitted effect of over 40% in size
Procedure, shortened: (§2)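 Four patient lines of CD133+ GBM neurospheres were screened at several concentrations; hits were retested in those lines plus three slower-growing GBM lines, using 48-hour treatment and ATP-based viability.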

[12] = qHTS assay to identify inhibitors of the type 1 interferon - major histocompatibility complex class I in skeletal muscle: Counter screen cell viability and HiBit confirmation (AID 1347412); settings: iHSKM muscle cells + IFN-b, HiBiT or CellTiter-Glo, 24 h; for activity change, negative = inhibition: at 45.9 µM (top of the series); for all read-outs here: nearly all actives have a fitted effect of over 60% in size
Procedure, shortened: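 After 24 h with human IFN-beta (4 ng/ml) and compound titrations (top 46 uM final, 1:3, 12 points), HLA-B HiBit myoblasts were lysed for either Nano-Glo HiBiT luminescence or CellTiter Glo viability on paired plates.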

[13] = Drug repurposing screens with cells derived from glioblastoma tumor samples (AID 1345199); settings: GBM patient neurospheres viability, ATP luminescence, 48 h; Potency: tumour line A unless noted; series mostly up to 46 µM; note: nearly all actives have a fitted effect of over 40% in size
Procedure, shortened: as §2
% is set by controls: 0 for no effect and ±100 for the full control effect; potency is the fitted concentration of half-maximal effect; tags give direction and shape of the fitted curve.

SMILES	Potency [1]	Potency [2]	Potency [3]	Potency [4]	Potency [5]	Potency [6]	Potency [7]	Potency [8]	Potency [9]	Potency [10]	activity, negative = cell killing [11]	activity change, negative = inhibition ([12]; HiBiT)	activity change, negative = inhibition ([12]; Viability)	Potency [11]	Potency [13]	Potency ([12]; HiBiT)	Potency ([12]; Viability)
COc1ccc(OC)c(-c2nnc3ccc(-c4ccc(OC)c(O[C@@H]5CCOC5)c4)nn23)c1	inconclusive: 15.8 µM [cytotoxic, partial curve, poor fit]	inconclusive: 25.1 µM [cytotoxic, partial curve, poor fit]	active: 22.4 µM	inconclusive: 7.94 µM [cytotoxic, full curve, poor fit]	inconclusive: 28.2 µM [cytotoxic, single point]	inconclusive: 7.94 µM [cytotoxic, full curve, poor fit]	inconclusive: 0.708 µM [cytotoxic, single point]	inconclusive: 20 µM [cytotoxic, partial curve, poor fit]	inconclusive: 10 µM [cytotoxic, partial curve, poor fit]	–	–	–	–	–	–	–	–
COc1cc(NCc2ccc3nc(N)nc(N)c3c2C)cc(OC)c1OC	inconclusive: 0.112 µM [cytotoxic, full curve, poor fit]	inconclusive: 1.78 µM	inconclusive: 0.316 µM [cytotoxic, full curve, poor fit]	active: 0.1 µM	inconclusive: 0.631 µM [cytotoxic, full curve, poor fit]	active: 0.178 µM	–	inconclusive: 1.58 µM	active: 0.1 µM	inconclusive: 0.0891 µM	inconclusive: -31% [inhibitor]	inactive: -7.08%	inactive: -0.467%	–	–	–	–
O=C(CC12CC3CC(CC(C3)C1)C2)Nc1cccc2nc(NCCNCCO)ccc12	inactive	–	–	–	–	–	–	–	–	–	–	–	–	–	–	–	–
Cc1ccc2c(c1)c1c(n2CCc2ccc(C)nc2)CCN(C)C1	inconclusive: 44.7 µM [cytotoxic, partial curve, poor fit]	inconclusive: 35.5 µM [cytotoxic, single point]	inactive	inconclusive: 39.8 µM [cytotoxic, single point]	–	inconclusive: 28.2 µM [cytotoxic, partial curve, poor fit]	inconclusive: 39.8 µM [cytotoxic, single point]	inconclusive: 35.5 µM [cytotoxic, single point]	inconclusive: 35.5 µM [cytotoxic, single point]	–	–	–	–	–	–	–	–
Clc1ccc(C2(c3ccc(-c4cn[nH]c4)cc3)CCNCC2)cc1	inconclusive: 17.8 µM [cytotoxic, partial curve, poor fit]	inconclusive: 31.6 µM [cytotoxic, single point]	inconclusive: 17.8 µM [cytotoxic, partial curve]	inconclusive: 31.6 µM [cytotoxic, single point]	–	inconclusive: 25.1 µM [cytotoxic, single point]	active: 31.6 µM	active: 12.6 µM	–	inconclusive: 20 µM [cytotoxic, partial curve]	–	–	–	–	–	–	–
COc1cc2c(c(OC)c1OC)-c1ccc(OC)c(=O)cc1[C@@H](NC(C)=O)CC2	inconclusive: 0.0316 µM	inconclusive: 1.26 µM	inconclusive: 0.0398 µM	inconclusive: 0.0891 µM	inconclusive: 0.0631 µM [cytotoxic, full curve, poor fit]	inconclusive: 0.355 µM	inconclusive: 7.94 µM	inconclusive: 2.24 µM	inconclusive: 0.0891 µM	–	–	–	–	inconclusive: 0.0316 µM [inhibitor, full curve]	–	–	–
COc1cc2nccc(Oc3ccc(NC(=O)Nc4cc(C)on4)c(Cl)c3)c2cc1OC	inconclusive: 35.5 µM [cytotoxic, partial curve, poor fit]	inconclusive: 39.8 µM [cytotoxic, partial curve, poor fit]	inconclusive: 39.8 µM [cytotoxic, single point]	–	–	inconclusive: 25.1 µM [cytotoxic, single point]	inconclusive: 39.8 µM [cytotoxic, partial curve, poor fit]	inconclusive: 39.8 µM [cytotoxic, single point]	inconclusive: 17.8 µM [cytotoxic, partial curve]	inconclusive: 3.55 µM [cytotoxic, partial curve, poor fit]	–	–	–	–	–	–	–
COC(=O)Nc1nc2ccc(C(=O)c3ccccc3)cc2[nH]1	inconclusive: 1.41 µM [cytotoxic, full curve, poor fit]	active: 2.82 µM	–	inconclusive: 1.58 µM [cytotoxic, full curve]	inconclusive: 7.94 µM [cytotoxic, full curve]	active: 1.41 µM	inconclusive: 1.78 µM [cytotoxic, full curve]	inconclusive: 3.55 µM [cytotoxic, partial curve, poor fit]	active: 1.58 µM	active: 8.91 µM	–	–	inactive: -33.9%	inconclusive: 0.501 µM [inhibitor, full curve]	active: 0.158 µM	inconclusive: 1.11 µM [inhibitor, full curve]	–
Cc1c(CN2CCN(S(C)(=O)=O)CC2)sc2c(N3CCOCC3)nc(-c3cnc(N)nc3)nc12	active: 0.708 µM	inconclusive: 0.794 µM [cytotoxic, full curve]	–	active: 0.501 µM	inconclusive: 1.58 µM [cytotoxic, full curve, poor fit]	active: 1.58 µM	active: 0.562 µM	active: 2 µM	inconclusive: 0.794 µM [cytotoxic, full curve]	active: 1.41 µM	–	–	–	–	–	inconclusive: 0.625 µM [inhibitor, full curve]	inconclusive: 0.701 µM [cytotoxic, full curve]
Cn1cc(-c2ccc3ncc(Cc4ccc5ncccc5c4)n3n2)cn1	inconclusive: 25.1 µM [cytotoxic, single point]	inconclusive: 35.5 µM [cytotoxic, single point]	inconclusive: 25.1 µM [cytotoxic, single point]	–	inconclusive: 39.8 µM [cytotoxic, single point]	inconclusive: 39.8 µM [cytotoxic, single point]	inconclusive: 0.141 µM [cytotoxic, single point]	inconclusive: 39.8 µM [cytotoxic, single point]	inconclusive: 39.8 µM [cytotoxic, single point]	–	–	–	–	–	–	–	–
FC(F)c1nc2ccccc2n1-c1nc(N2CCOCC2)nc(N2CCOCC2)n1	active: 2.24 µM	active: 14.1 µM	inconclusive: 5.01 µM [cytotoxic, full curve, poor fit]	active: 2.24 µM	inconclusive: 2.82 µM [cytotoxic, partial curve, poor fit]	active: 2 µM	active: 2.82 µM	inconclusive: 7.94 µM [cytotoxic, full curve]	inconclusive: 7.08 µM [cytotoxic, full curve]	inconclusive: 2.51 µM [cytotoxic, full curve]	–	–	–	–	–	inconclusive: 0.351 µM [inhibitor, full curve]	inconclusive: 0.394 µM [cytotoxic, full curve]
CC(C)C[C@H](NC(=O)[C@@H](NC(=O)c1cccc(-c2ccccc2)n1)[C@@H](C)O)B(O)O	active: 0.112 µM	active: 0.251 µM	active: 0.631 µM	active: 0.316 µM	inconclusive: 0.126 µM [cytotoxic, full curve, poor fit]	inconclusive: 100 µM	inconclusive: 7.94 µM [cytotoxic, full curve, poor fit]	active: 0.112 µM	inconclusive: 0.562 µM [cytotoxic, full curve, poor fit]	active: 0.316 µM	–	–	–	–	–	–	inconclusive: 0.0352 µM [cytotoxic, full curve]
COc1cc(Nc2ncc3c(n2)-c2ccc(Cl)cc2C(c2c(F)cccc2OC)=NC3)ccc1C(=O)O	inconclusive: 39.8 µM [cytotoxic, single point] and inconclusive: 20 µM [cytotoxic, partial curve, poor fit]	inconclusive: 28.2 µM [cytotoxic, single point]	inconclusive: 0.316 µM [cytotoxic, full curve, poor fit]	–	inconclusive: 39.8 µM [cytotoxic, single point]	–	active: 25.1 µM	inconclusive: 17.8 µM [cytotoxic, partial curve, poor fit]	inconclusive: 35.5 µM [cytotoxic, partial curve, poor fit]	active: 28.2 µM	–	inactive: -11.1%	–	–	–	–	–
CNC1CCC(N(Cc2cccc(-c3ccncc3)c2)C(=O)c2sc3ccccc3c2Cl)CC1 (configuration not stated)	active: 22.4 µM	inconclusive: 28.2 µM [cytotoxic, single point]	–	inconclusive: 22.4 µM [cytotoxic, partial curve]	inconclusive: 25.1 µM [cytotoxic, partial curve]	inconclusive: 8.91 µM [cytotoxic, partial curve, poor fit]	active: 25.1 µM	–	–	inconclusive: 39.8 µM [cytotoxic, single point]	–	–	–	–	–	–	–

Source: PubChem BioAssay (NCATS)
